The source gives no read counts; variants with many changes may rest on few reads.
B1: OR4K15 (parent)
chain: GUUAACGGUCAUAGGCCAUGGAAACUAGGAGCACCAUUUCGCUGCCAGUGAAGAAAUGAACAAAGAAAAUCUGGGCCAGGCAGGCAUCAAAAGAAAUAGUCUUGCGCUCAACCAGAAAGUCUGUAAUCAUUUUAAGGGUA

Variants of: B1
Test: self-cleavage, relative activity (ratio to wild type); higher = more cleavage; in vitro, sequencing; the parent is a self-cleaving ribozyme

Variant	self-cleavage
U3G U43C A86G C101U	0.14
A5G A90G A116U	0.01
A24G C34U U43C A47G U102A	0.2
U97C A126G U127C	0.18
A98C U127C A135U U139A	0.25
A11U A62U G74U U108C	0.01
A52G A89G A90G A111G	0.04
U57C A78U A116G	0.05
A22G A59G G83U	0.54
A30G U70C A95G U122A	0.72
A23G U38C A60U	1.72
A5C A33U A60G A78G A94G A98U U130C U132A	0.31
U102C G104U A125G U130G	0.01
A18G U87C G119A U122C	0.27
A27G U70C A95G A111U U139C A140G	0.06
A66G U103A A111G	0.02
U2C U37C U122A	1.36
U3C A51G A54G	0.93
U108C A116G A129G	0
A69G A89U U130C	0.78
U49A A66G A92U A118G U133A	0.93
A82G A89G U100C	1.99
A22G A33G A63G A114G U127C	0.13
A13U A78G U87C	0.32

Variant	self-cleavage
A11G U19G A60G	0.94
A24U U39A A64U	1.05
A30G U122A U132C	0.98
A94G C113U A116G A126G U139C	0.02
U38C A51U A63G G115A U124A	0.04
U49C A60G U130A	0.24
A51G A129G U131C	1.34
U38C A89G G104U A111G	0
A22G A67G U70A	0.33
A59U A64G A94G U102C	2.17
A23U U26C U38C	1.02
U26A A52G U70C	0.42
U49C A55G A67U	2
A18G A51G A96G A129C U130C	0.85
C35U A52U A90G U108C U120C	0
U72A A95G U122C A134U	0.14
A47G A89G U100C	2.26
A24G U43C A69G A116G A125G U131C G136A	0.02
A23G A96U U102C C105U A114U	0
A60G U70C U100C A118G	0.94
U9A A22G A66G	1
A18G A82G U87A A114G A117G	0.38
A68G A114G U120C	0.12
U37G A91G U100C U102A U103C	0.4

Variant	self-cleavage
A5C U38C A54G G83A U97C	1.65
U49C C107A A114G U132C	0.01
U2A A33G U49C	0.75
C17A C76G A96G U120G	0.09
A63G A69G A78C	0.36
U3A U38C A63G	0.94
A5G A90G U108C	0.09
A22G A52G A68G A92G	1.04
C17G A60G A90G U127C	0.19
A5G A36G A135U	1.03
A4G U19C U38C A51G	0.98
A117G U124C U131C	1.5
A56G A82G A90G	0.29
U2C A18U A27G A52G A82U A89G A117G	0.17
U9C A18U A30G	1.28
C71U A82U A91G	0.14
A47G U57C A66G U131G U139C	0.5
A5G A24C A67G A82G A91G A92G A135G	0.28
A13G A63U A86G	1.02
C32U G44U A54G A56G A68G A98G A114C	0.04
A23G A54G A60G A91G	0.62
U9C G29A U87C A118U	0.65
A24G A54G C85U	0.42
U19C U57C A60U U87C	0.44

Variant	self-cleavage
U12C A23G G41A A66U A68G	0.88
A5U G15A U37C A51G A129G A135G	0.49
A23G A60G G80U U102C	0.23
A33G U70C A92G	0.27
A5G A36G A69G U130C U131C	0.32
A5G A60G U108A	0.12
A47U A60G U100C U102C A114G A117G	0.3
A52G U72C A96G	0.18
U19C A24G A116G	0.29
A11U A69G G73A	0.3
A11C U12C A78U	0.37
A54G A56U A69G A86U	0.93
G14C C42U A110C A111U	0.02
U19C A30C U38C A89G A98G A117G A140G	0.68
A23G A67G A117U U120C	0.41
U37C A62G C76G G80A C128A	0.12
A11C A22G A95G	0.91
A24G A30G G48A A60G	0.58
A23G G41U A52G A67G A96C	0.39
G74U U97A A110C	0.02
A82G A89G U108C	0.01
U37C A54G U70G A110G	0.19
A23G U102A U124A	0.18
U2C U57C G74A A78U C88G U131C G137A	0.01

Variant	self-cleavage
U9A A11G A63G A67G G106A	0.08
A5U A56G A92G A116G U120C A129G	0.18
U2C U38C A114G	0.22
U2C U9C U37C A62G A67G A96G A111U U120C	0.04
A18G U38C A56G C77U	1.65
A56G A68G U100C A118G	1.5
A30G A62U A68G	0.79
A67G A78U G137A	0.23
U43C A59G A68G	1.43
A27C A52G U132A	1.8
A5G A54G U57C A126G U127C	0.3
C6G A91G A114G	0.49
U3A A47U A67G	1.59
A18G A22G U43C A69G U102C A111G	0.05
U2C A23G U122C	0.97
A91G A116G U131C	0.27
A78U A91U U103C	0.07
A56U A92G U103C	0.09
A24G U49C A59G A66G A69G A114C U124A	0
A82G A118C U132C	0.33
U43C U87C U130C	1.1
A27G U39C A54G U122C	0.77
U39A A89G A96G	0.88
A18C U39C A54G A89U U97C U103C C105U U108A	0.01

Variant	self-cleavage
A22G A24G A78G	0.26
A30U A68G A90G U139C	1.61
A11G A52G U87C	0.78
U3A A63G A86G U87C A110G A135U	0.06
A86G A89C U122C	0.51
A22U A33G U38G A89G U131C	0.71
A36U U100A A116G U130C G138U	0.05
A22G A82U U131C	0.18
A5G U9C A11G U38C A118G	1.07
A59G A78U A116G U132C	0.08
A51G A60G A126G	0.47
A56G A98G U131C A134G	0.11
A24G U39C A117G U120C	1.03
A22G U43A A69U G106A A111U	0
A36G A52G A60U A67G	1.53
A22G A23G A47G U100C U103A	1.4
A36G A67G A78G A140G	0.41
U49C A60G A66G A69U	1.67
A22G G41A A59U A82G U108C U122C G136A	0
A22G A66G A67G A90G A125G	0.14
A22G U49C A118G U130C	0.23
A22U A69G U97A A116G	0.33
U2C A60G A89G	1.46
A27G A64C A95G	1.71

Variant	self-cleavage
U72C A89G U108C	0.01
A54G U72A A90G A129G	0.07
A110G U122C A126C	0.04
U120A U124C U130A U133C	1.08
U19A U37C U43C A91G A117G A118G	1.18
U26C U72G A114G	0.1
C85G U87C A110G	0.07
A36U A51G A86U	1.29
A24G C42U A118C	0.61
C34U A36U A64G A78G	0.28
U39C C128U U132C	1.34
G29A U49C A92G	1.02
A94G A117G U124A	1.72
A13U A18U A68G	1.95
A30G A51G A90G	1.49
A23G A66G A114G	0.53
G1A G8A U39C U108C A140G	0.02
A5G A23G A62G A69C U72C A94G	0.15
A90G A96G U97C A114G	0.05
G7A U49C A111G U122C	0.02
A51G A89C U108C	0.04
A4G A33C A51G U102C	0.95
U2C U3C U9C U120A	1.23

From the RNAGym collection of RNA variant scans (doi:10.7554/elife.90254)
